Test results: article PMC5945890
No constants are given. Whether binding was seen depends on the method and setting. For some of these results: In cells and extracts the contact can be indirect. Some binding calls cover weakened binding; strength is not graded here. Sequences can lack the tags named with a protein.

T1: cleavage and polyadenylation specificity factor 30-L (CPSF30-L), BD fusion for yeast two-hybrid (Arabidopsis thaliana) (UniProt A9LNK9)
T1 sequence: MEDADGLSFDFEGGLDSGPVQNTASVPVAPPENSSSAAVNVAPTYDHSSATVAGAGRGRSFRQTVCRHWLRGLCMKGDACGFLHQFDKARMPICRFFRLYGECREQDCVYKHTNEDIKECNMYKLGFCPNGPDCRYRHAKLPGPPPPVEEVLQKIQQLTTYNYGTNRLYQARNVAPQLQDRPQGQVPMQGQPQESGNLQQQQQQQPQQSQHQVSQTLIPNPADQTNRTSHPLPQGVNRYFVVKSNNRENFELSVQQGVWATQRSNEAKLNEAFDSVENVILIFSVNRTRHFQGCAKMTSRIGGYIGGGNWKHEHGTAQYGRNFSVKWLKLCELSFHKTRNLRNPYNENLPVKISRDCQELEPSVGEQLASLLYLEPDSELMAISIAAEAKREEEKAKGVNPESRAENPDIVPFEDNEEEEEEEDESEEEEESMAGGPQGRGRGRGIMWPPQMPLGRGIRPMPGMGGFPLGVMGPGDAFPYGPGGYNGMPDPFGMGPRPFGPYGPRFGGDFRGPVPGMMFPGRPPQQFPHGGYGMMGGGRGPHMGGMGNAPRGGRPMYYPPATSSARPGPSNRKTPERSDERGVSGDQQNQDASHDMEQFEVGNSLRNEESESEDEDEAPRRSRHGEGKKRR

T2: mCPSF30-L (CPSF30-L with Gly to Arg at the 126th amino acid), BD fusion for yeast two-hybrid (Arabidopsis thaliana) (UniProt A9LNK9)
T2 sequence: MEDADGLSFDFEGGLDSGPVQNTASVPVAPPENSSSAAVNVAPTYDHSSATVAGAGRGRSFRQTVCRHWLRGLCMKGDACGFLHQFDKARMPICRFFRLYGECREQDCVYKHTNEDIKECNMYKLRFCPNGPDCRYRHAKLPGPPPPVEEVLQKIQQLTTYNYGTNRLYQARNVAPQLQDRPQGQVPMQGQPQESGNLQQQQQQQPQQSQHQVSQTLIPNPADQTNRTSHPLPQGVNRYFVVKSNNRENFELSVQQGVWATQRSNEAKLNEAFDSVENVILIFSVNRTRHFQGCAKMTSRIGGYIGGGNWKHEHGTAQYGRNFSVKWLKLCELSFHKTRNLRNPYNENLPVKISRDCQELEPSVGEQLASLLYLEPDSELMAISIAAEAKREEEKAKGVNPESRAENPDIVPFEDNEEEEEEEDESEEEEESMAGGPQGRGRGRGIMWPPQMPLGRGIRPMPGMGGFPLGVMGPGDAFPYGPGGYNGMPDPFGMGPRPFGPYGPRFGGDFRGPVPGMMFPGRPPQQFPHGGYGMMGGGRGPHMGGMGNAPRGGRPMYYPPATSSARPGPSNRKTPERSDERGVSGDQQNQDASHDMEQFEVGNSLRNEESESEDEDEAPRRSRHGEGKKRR

T3: GST-CPSF30-L (Arabidopsis thaliana) (UniProt A9LNK9)
T3 sequence: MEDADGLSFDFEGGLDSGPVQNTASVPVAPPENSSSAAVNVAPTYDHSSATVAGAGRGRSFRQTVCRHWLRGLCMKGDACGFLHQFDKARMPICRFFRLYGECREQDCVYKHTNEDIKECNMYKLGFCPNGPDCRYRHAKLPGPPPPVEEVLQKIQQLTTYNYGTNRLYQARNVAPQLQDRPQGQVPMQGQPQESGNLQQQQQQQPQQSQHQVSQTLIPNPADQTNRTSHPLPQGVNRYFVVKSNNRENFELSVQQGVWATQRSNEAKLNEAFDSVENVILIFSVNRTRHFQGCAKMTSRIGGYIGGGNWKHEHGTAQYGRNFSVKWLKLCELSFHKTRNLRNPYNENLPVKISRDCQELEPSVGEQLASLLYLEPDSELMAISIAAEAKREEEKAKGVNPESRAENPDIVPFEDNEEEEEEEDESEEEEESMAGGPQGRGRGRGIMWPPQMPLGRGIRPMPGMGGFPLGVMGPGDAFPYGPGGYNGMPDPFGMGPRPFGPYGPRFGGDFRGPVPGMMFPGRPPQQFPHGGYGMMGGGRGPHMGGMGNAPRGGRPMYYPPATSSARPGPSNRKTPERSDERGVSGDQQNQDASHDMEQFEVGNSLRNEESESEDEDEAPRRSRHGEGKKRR

T4: GST-mCPSF30-L (Arabidopsis thaliana) (UniProt A9LNK9)
T4 sequence: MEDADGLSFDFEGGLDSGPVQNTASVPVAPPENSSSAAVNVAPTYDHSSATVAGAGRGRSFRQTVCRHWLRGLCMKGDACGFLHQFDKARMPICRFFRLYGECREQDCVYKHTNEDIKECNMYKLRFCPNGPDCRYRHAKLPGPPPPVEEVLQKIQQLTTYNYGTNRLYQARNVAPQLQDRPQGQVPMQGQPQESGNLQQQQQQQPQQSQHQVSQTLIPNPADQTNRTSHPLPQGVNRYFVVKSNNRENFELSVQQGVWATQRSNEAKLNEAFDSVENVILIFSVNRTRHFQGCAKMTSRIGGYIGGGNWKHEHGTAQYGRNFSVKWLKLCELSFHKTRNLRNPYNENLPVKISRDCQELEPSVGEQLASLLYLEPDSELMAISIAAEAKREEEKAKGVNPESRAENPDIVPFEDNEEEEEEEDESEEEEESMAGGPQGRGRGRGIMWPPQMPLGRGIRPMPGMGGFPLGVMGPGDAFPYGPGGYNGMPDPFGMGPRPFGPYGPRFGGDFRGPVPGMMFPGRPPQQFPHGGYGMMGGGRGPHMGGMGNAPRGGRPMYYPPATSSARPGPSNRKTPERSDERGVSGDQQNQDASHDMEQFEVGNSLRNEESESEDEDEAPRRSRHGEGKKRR


Columns and labels:
[1] = target: T1, cleavage and polyadenylation specificity factor 30-L (CPSF30-L), BD fusion for yeast two-hybrid (Arabidopsis thaliana); assay: two-hybrid; yeast two-hybrid (Clontech); CPSF30-L or mCPSF30-L in pGBKT7 (BD) as bait, FIP1, FIP1-S1 or FIP1-S2 in pGADT7 (AD); interaction tested on QDO (SD medium lacking leucine, tryptophan, histidine and adenine)
[2] = target: T2, mCPSF30-L (CPSF30-L with Gly to Arg at the 126th amino acid), BD fusion for yeast two-hybrid (Arabidopsis thaliana); assay: as above
[3] = target: T3, GST-CPSF30-L (Arabidopsis thaliana); assay: pull-down; GST-tagged bait immobilised on glutathione agarose beads (Thermo GST protein interaction pull-down kit), His-tagged prey, both made in E. coli BL21; eluate blotted with anti-His antibody
[4] = target: T4, GST-mCPSF30-L (Arabidopsis thaliana); assay: as above

binding [1] | binding [2] | binding [3] | binding [4] | Binder
binds | no binding |  |  | FIP1 (factor interacting with poly(A) polymerase 1), AD fusion for yeast two-hybrid (protein, UniProt F4KDH9 1-1196) MEEDDEFGDLYSDVLQPFQPPVVLPPPPPLPHRSIDLNLRSQDQDVSEPNSAPISRVSDNDAVKLSTQDATRQAIVDGGGDDKDMSFDIEEPDADSTPTIPGLFVTGALPGLATDRGVSQVTTRIEQQVGGGGDGGYGGQGEGDDWDSDSEDDLQIVLNDSSRNVMIGGADRRSRMGDNEDDDDEDDEDPLVIVADTDPNQPMEEQMWGEDGLQGIEGDGKDGGEAGKGSGPGGATGPPKAGYSSHGYHPFHSQFKYVRPGAAPIPGGAASVGGPSSGQVRPPANLGPMAGRGRGDWRPLGMRNASAAQKGFHQPWGSNTAGRGLDFTLPSHKTIFEVDIDSFEEKPWRYPGVEMTDYFNFGLNEESWKDYCKQLDQHRIQTTMQSRIRVYESGRTDQGYDPDLPPELAAATGAQGVPVDSSNLVKPDSVQGDSAKVPANVRPTLPPGRPIPVETGSGERLPSIDTRAPRMRDLDAIIEIVCQDSHEDEPSGENGTDQADSSLPGENVPVETSYVNNKRPDTESAEHSPAQDEPHKNLLKKQDDEISRSTDSGQSFRSSSPVGDRGTRSSSVDREDVGGEAGKDAEMGEELKMSFTSPQSAVQEDDGGESKTERSSESSKARSGSHRDFQQEEDVIQDKHSSRPANNRKQYDNNAPHQSRKNQDRGKEMERTRAASKGGRENSNPHMELDSTYIYSIASREDFDKRKERDVDGAVWRRKEDDPYSRRGGDEGSRKRDREDDPGFRQRGKMRENEIRSKDDQVPSRKHMDDAGMRNIYEPDDHINKRRKDEEYLRRSRPEKNEISYGQRESMSRVKRERDDRLEHQKRDVQHKIRDDFDDHGSLRQRDDIYMQRDGNERLRERDVLDKLKLPHEDGISARGRERQVAVRGHRGSEDRSSRMKDEYKASDKEHVTKDTLRHAKQTKRRDYPGEESSSHHRGHEDFSARTDNIVNNEKKPRQERTGAKIDKFIDTLDGQRLQDRKHKDSRRKIKEQREGTESLSKQGEQNGSSVVTGSKGTNDARNCRSEIPHQPNTAKRHKENASSGDEIHDSKRGRTKLERWASHKEREDAVSAKSSSISSKLEEKENNTNGRLSEPVHGSIGKSRDVTEEKIGHDLADTKDGSEKGPGDRHLDTVEKLKKRSERFKLPMPTEKDTTGVKKMESETLPSAKIEGPVDSEGEYVWDERSCVRIGREYA
 |  | binds | no binding | His-FIP1 (protein, UniProt F4KDH9 1-1196) MEEDDEFGDLYSDVLQPFQPPVVLPPPPPLPHRSIDLNLRSQDQDVSEPNSAPISRVSDNDAVKLSTQDATRQAIVDGGGDDKDMSFDIEEPDADSTPTIPGLFVTGALPGLATDRGVSQVTTRIEQQVGGGGDGGYGGQGEGDDWDSDSEDDLQIVLNDSSRNVMIGGADRRSRMGDNEDDDDEDDEDPLVIVADTDPNQPMEEQMWGEDGLQGIEGDGKDGGEAGKGSGPGGATGPPKAGYSSHGYHPFHSQFKYVRPGAAPIPGGAASVGGPSSGQVRPPANLGPMAGRGRGDWRPLGMRNASAAQKGFHQPWGSNTAGRGLDFTLPSHKTIFEVDIDSFEEKPWRYPGVEMTDYFNFGLNEESWKDYCKQLDQHRIQTTMQSRIRVYESGRTDQGYDPDLPPELAAATGAQGVPVDSSNLVKPDSVQGDSAKVPANVRPTLPPGRPIPVETGSGERLPSIDTRAPRMRDLDAIIEIVCQDSHEDEPSGENGTDQADSSLPGENVPVETSYVNNKRPDTESAEHSPAQDEPHKNLLKKQDDEISRSTDSGQSFRSSSPVGDRGTRSSSVDREDVGGEAGKDAEMGEELKMSFTSPQSAVQEDDGGESKTERSSESSKARSGSHRDFQQEEDVIQDKHSSRPANNRKQYDNNAPHQSRKNQDRGKEMERTRAASKGGRENSNPHMELDSTYIYSIASREDFDKRKERDVDGAVWRRKEDDPYSRRGGDEGSRKRDREDDPGFRQRGKMRENEIRSKDDQVPSRKHMDDAGMRNIYEPDDHINKRRKDEEYLRRSRPEKNEISYGQRESMSRVKRERDDRLEHQKRDVQHKIRDDFDDHGSLRQRDDIYMQRDGNERLRERDVLDKLKLPHEDGISARGRERQVAVRGHRGSEDRSSRMKDEYKASDKEHVTKDTLRHAKQTKRRDYPGEESSSHHRGHEDFSARTDNIVNNEKKPRQERTGAKIDKFIDTLDGQRLQDRKHKDSRRKIKEQREGTESLSKQGEQNGSSVVTGSKGTNDARNCRSEIPHQPNTAKRHKENASSGDEIHDSKRGRTKLERWASHKEREDAVSAKSSSISSKLEEKENNTNGRLSEPVHGSIGKSRDVTEEKIGHDLADTKDGSEKGPGDRHLDTVEKLKKRSERFKLPMPTEKDTTGVKKMESETLPSAKIEGPVDSEGEYVWDERSCVRIGREYA
